# Variants at the floor of the assay are shown more often than the library holds them.
# B1: tRNA (parent)
# chain: CUCUCGGUAGCCAAGUUGGUUUAAGGCGCAAGACUUUAAUUUAUCACUACGAAAUCUUGAGAUCGGGCGUUCGACUCGCCCCCGGGAGAUUUUUUCCUCGAGCAA
# Variants of: B1
# Assay: nonsense suppression (GFP-seq) (ratio to wild type); higher = more function; SUP4oc tRNA, yeast GFP reporter sort-seq
# Outline: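 Nonsense suppression (GFPSEQ) is the median GFP/RFP ratio of each sorting bin, weighted by the variant's estimated share of cells in that bin and expressed relative to the unmutated parent tRNA. Yeast strains carried genome-integrated variants of an ochre-suppressor tRNA from a library with ~3% random mutations, plus a galactose-driven GFP ochre reporter and RFP, and were grown in raffinose/galactose medium containing 80 mg/L adenine. Cells were sorted into GFP/RFP bins, each bin was Illumina-sequenced (phred ≥30), and variants were kept only with ≥100 reads and ≥30 cells.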
row,Variant,nonsense suppression
1,C3U U4C C5G G7U U8A A9G G10C C12A U17A U57A,≤ 0.026
2,C3U U4C C68A,≤ 0.026
3,C3U U4C G26A C34U G78A,≤ 0.026
4,C3U U4C U22A G73C,≤ 0.026
5,C3U U4C U58C G61A,≤ 0.026
6,C3U U4G C34A,≤ 0.026
7,C3U U8A A9U,≤ 0.026
8,C3U U8A U76A,≤ 0.026
9,C3U U8G,≤ 0.026
10,C3U U8G G15U U55C A60C A62G,≤ 0.026
11,C3U U8G U58G C80A C82G G86C,≤ 0.026
12,C3U U16A,0.16
13,C3U U16A U20G C83U,≤ 0.026
14,C3U U16C C29A G86A,≤ 0.026
15,C3U U16G G73U C77A,≤ 0.026
16,C3U U17A U58C G88A,≤ 0.026
17,C3U U17A U58G A60G G61U,≤ 0.026
18,C3U U17C C79U,≤ 0.026
19,C3U U17G A33G U70G,≤ 0.026
20,C3U U17G G18U G25C A31G,≤ 0.026
21,C3U U20A U63G C72G,≤ 0.026
22,C3U U20C A31U G84A,≤ 0.026
23,C3U U20C A74U,≤ 0.026
24,C3U U20G G26A U58G C75G,≤ 0.026

row,Variant,nonsense suppression
1,C3U U20G G85A,0.214
2,C3U U21A,0.196
3,C3U U21A G32C C56U,≤ 0.026
4,C3U U21G,0.137
5,C3U U22G G88U,≤ 0.026
6,C3U U35A C64A G78C,≤ 0.026
7,C3U U55A U57C C64U G67A,≤ 0.026
8,C3U U55C,≤ 0.026
9,C3U U57A C79A,≤ 0.026
10,C3U U58A,≤ 0.026
11,C3U U58C G88U,≤ 0.026
12,C3U U63C C75G,≤ 0.026
13,C3U U63G G86U,≤ 0.026
14,C3U U70G U76C,≤ 0.026
15,C3U U76C C83U,≤ 0.026
16,C3U U76G,≤ 0.026
17,U4A,0.693
18,U4A A9G G73U C77G G86U,≤ 0.026
19,U4A A9U U58G,≤ 0.026
20,U4A A13C,0.294
21,U4A A13C U70C C82U,≤ 0.026
22,U4A A14U,0.0276
23,U4A A23G,0.288
24,U4A A23G C68A A87G,≤ 0.026

row,Variant,nonsense suppression
1,U4A A23G C79G,≤ 0.026
2,U4A A23U C81U,≤ 0.026
3,U4A A24G G66C C68U,≤ 0.026
4,U4A A24U U71C G78A C82A A87C,≤ 0.026
5,U4A A30G,0.0267
6,U4A A30U A33U U55A C56G,≤ 0.026
7,U4A A31U,0.0312
8,U4A A33G,≤ 0.026
9,U4A A33G A60U,≤ 0.026
10,U4A A33G U57C,≤ 0.026
11,U4A A33U U71A A74G,≤ 0.026
12,U4A A74C A87G,≤ 0.026
13,U4A C5A,0.0374
14,U4A C5G A33G,≤ 0.026
15,U4A C5G G59A,≤ 0.026
16,U4A C5G G69C G86A,≤ 0.026
17,U4A C11A G19U A87G,≤ 0.026
18,U4A C11A G86U,≤ 0.026
19,U4A C11A U35C,≤ 0.026
20,U4A C11G A74G,≤ 0.026
21,U4A C11G U71C G73A,≤ 0.026
22,U4A C27A G32C C34G C83A,≤ 0.026
23,U4A C29A,≤ 0.026
24,U4A C29A U71C G78U,≤ 0.026

row,Variant,nonsense suppression
1,U4A C29G A60C,≤ 0.026
2,U4A C29U A30G U57G G78U G85A,≤ 0.026
3,U4A C34A A62G C83G,≤ 0.026
4,U4A C34G,≤ 0.026
5,U4A C56G C75A C81G C82G,≤ 0.026
6,U4A C75A C82U,≤ 0.026
7,U4A C79G C82G,≤ 0.026
8,U4A C82A,≤ 0.026
9,U4A C83G,≤ 0.026
10,U4A G6A C79U,≤ 0.026
11,U4A G7A G25U G59A,≤ 0.026
12,U4A G7C,≤ 0.026
13,U4A G7C G15C G32U,≤ 0.026
14,U4A G7U A14U A24C G26U C79G,≤ 0.026
15,U4A G7U U76A,≤ 0.026
16,U4A G10A U21G G28C,≤ 0.026
17,U4A G10U C12A,≤ 0.026
18,U4A G15C,≤ 0.026
19,U4A G15U,≤ 0.026
20,U4A G18A C75G,≤ 0.026
21,U4A G18C A24U,≤ 0.026
22,U4A G18C C34G U58A A89C,≤ 0.026
23,U4A G18U A31C C77G,≤ 0.026
24,U4A G19A,≤ 0.026

row,Variant,nonsense suppression
1,U4A G25A,≤ 0.026
2,U4A G25A U55G U70G C77U,≤ 0.026
3,U4A G28U A60C,≤ 0.026
4,U4A G28U U57C G67C G85U G88C,≤ 0.026
5,U4A G32A G84A,≤ 0.026
6,U4A G32U,≤ 0.026
7,U4A G32U U35A,≤ 0.026
8,U4A G59U,≤ 0.026
9,U4A G59U U70G C82G,≤ 0.026
10,U4A G61U C82G,≤ 0.026
11,U4A G67C C80G,≤ 0.026
12,U4A G73U,≤ 0.026
13,U4A G86C,≤ 0.026
14,U4A U17A U22C,0.0499
15,U4A U17C U63A C82A,≤ 0.026
16,U4A U20G C34U U58G,≤ 0.026
17,U4A U20G C56A U71A C77U,≤ 0.026
18,U4A U20G C68U,≤ 0.026
19,U4A U20G G32A G61A C79G,≤ 0.026
20,U4A U21C A54C U57A C81A,≤ 0.026
21,U4A U21G G61C,≤ 0.026
22,U4A U21G G69C,≤ 0.026
23,U4A U22A G59A,≤ 0.026
24,U4A U22G,0.155

row,Variant,nonsense suppression
1,U4A U35C G61C,≤ 0.026
2,U4A U55G G59C,≤ 0.026
3,U4A U57C A74U G84A,≤ 0.026
4,U4A U58G G61A,≤ 0.026
5,U4A U63A C77A,≤ 0.026
6,U4A U76A A87U,≤ 0.026
7,U4A U76C A89U,≤ 0.026
8,U4C,0.585
9,U4C A9C G84A,0.0602
10,U4C A9G,0.391
11,U4C A9G G67C U70G,≤ 0.026
12,U4C A9G U22G,0.202
13,U4C A9U G67C,≤ 0.026
14,U4C A13C A24U,0.488
15,U4C A13C U17G C64G,≤ 0.026
16,U4C A13U,1.12
17,U4C A13U G78A,0.424
18,U4C A13U U63G G66A,≤ 0.026
19,U4C A14C C27U A30U A60G,≤ 0.026
20,U4C A14C U57A A62U C64A C68U,≤ 0.026
21,U4C A14G A33U,≤ 0.026
22,U4C A14G G59U,≤ 0.026
23,U4C A14U G59U U71C U76A G86C,≤ 0.026
24,U4C A23G C29U G32A,≤ 0.026

row,Variant,nonsense suppression
1,U4C A23G U58A G86C,≤ 0.026
2,U4C A23U,≤ 0.026
3,U4C A23U U76G,≤ 0.026
4,U4C A24G C82G,≤ 0.026
5,U4C A30G U70G C83U,≤ 0.026
6,U4C A31C,≤ 0.026
7,U4C A31C U35G U71G,≤ 0.026
8,U4C A33C G59U G88U,≤ 0.026
9,U4C A33C G88C,≤ 0.026
10,U4C A33G,0.0434
11,U4C A54C,1.01
12,U4C A62U,0.272
13,U4C A74G,≤ 0.026
14,U4C A87G,1.1
15,U4C A89C,≤ 0.026
16,U4C C5A G6U A13C G28A A31C,≤ 0.026
17,U4C C5A U55C C81U,≤ 0.026
18,U4C C11A A13G,≤ 0.026
19,U4C C11A A31G A62G,≤ 0.026
20,U4C C11A C12U,≤ 0.026
21,U4C C11G U76A,≤ 0.026
22,U4C C11U U21G A31G A87U,≤ 0.026
23,U4C C12A G67C G73A,≤ 0.026
